# Laboratory results taken from the supplement of paper PMC8728848.
# The other results are listed elsewhere or left out.
# Legend:
# Experiment in all cases: glycan array binding signal (z-score within array); higher = stronger binding
# Conditions in all cases: glycan notation: IUPAC condensed, linker removed; mutation: R343K
# [1] = target: Fuc(a1-2)Gal
# In short: (§1)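 From the Consortium for Functional Glycomics database, 3228 arrays were curated, keeping only those whose protein sequence was available. Binding is given as a within-array Z-score averaged across arrays sharing a protein sequence and across linkers. Negative Z-scores can be read as non-binding.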
# [2] = target: Fuc(a1-2)Gal(b1-3)GalNAc
# In short: as §1
# [3] = target: Fuc(a1-2)Gal(b1-3)GalNAc(b1-3)Gal
# In short: as §1
# [4] = target: Fuc(a1-2)Gal(b1-3)GalNAc(b1-3)Gal(a1-4)Gal(b1-4)Glc
# In short: as §1
# [5] = target: Fuc(a1-2)Gal(b1-3)GalNAc(b1-4)[Neu5Ac(a2-3)]Gal(b1-4)Glc
# In short: as §1
# [6] = target: Fuc(a1-2)Gal(b1-3)GlcNAc
# In short: as §1
# [7] = target: Fuc(a1-2)Gal(b1-3)GlcNAc(b1-3)Gal(b1-4)Glc
# In short: as §1
# [8] = target: Fuc(a1-2)Gal(b1-3)[Fuc(a1-4)]GlcNAc
# In short: as §1
# [9] = target: Fuc(a1-2)Gal(b1-4)Glc
# In short: as §1
# [10] = target: Fuc(a1-2)Gal(b1-4)Glc6S
# In short: as §1
# [11] = target: Fuc(a1-2)Gal(b1-4)GlcNAc
# In short: as §1
# [12] = target: Fuc(a1-2)Gal(b1-4)GlcNAc(b1-3)Gal(b1-4)GlcNAc
# In short: as §1
# [13] = target: Fuc(a1-2)Gal(b1-4)GlcNAc(b1-3)Gal(b1-4)GlcNAc(b1-3)Gal(b1-4)GlcNAc
# In short: as §1
# [14] = target: Fuc(a1-2)Gal(b1-4)GlcNAc6S
# In short: as §1
# [15] = target: Fuc(a1-2)Gal(b1-4)[Fuc(a1-3)]GlcNAc
# In short: as §1
# [16] = target: Fuc(a1-2)Gal(b1-4)[Fuc(a1-3)]GlcNAc(b1-3)Gal(b1-4)[Fuc(a1-3)]GlcNAc
# In short: as §1
# [17] = target: Fuc(a1-2)Gal(b1-4)[Fuc(a1-3)]GlcNAc(b1-3)Gal(b1-4)[Fuc(a1-3)]GlcNAc(b1-3)Gal(b1-4)[Fuc(a1-3)]GlcNAc
# In short: as §1
# [18] = target: Fuc(a1-2)Gal6S(b1-4)Glc
# In short: as §1
# [19] = target: Fuc(a1-2)Gal6S(b1-4)Glc6S
# In short: as §1
# [20] = target: Fuc(a1-2)Gal6S(b1-4)GlcNAc
# In short: as §1
# [21] = target: Fuc(a1-2)[Gal(a1-3)]Gal
# In short: as §1
# [22] = target: Fuc(a1-2)[Gal(a1-3)]Gal(b1-3)GlcNAc
# In short: as §1
# [23] = target: Fuc(a1-2)[Gal(a1-3)]Gal(b1-4)Glc
# In short: as §1
# [24] = target: Fuc(a1-2)[Gal(a1-3)]Gal(b1-4)GlcNAc
# In short: as §1
# [25] = target: Fuc(a1-2)[Gal(a1-3)]Gal(b1-4)[Fuc(a1-3)]GlcNAc
# In short: as §1
# [26] = target: Fuc(a1-2)[Gal(a1-4)]Gal(b1-4)GlcNAc
# In short: as §1
# [27] = target: Fuc(a1-2)[GalNAc(a1-3)]Gal
# In short: as §1
# [28] = target: Fuc(a1-2)[GalNAc(a1-3)]Gal(b1-3)GlcNAc
# In short: as §1
# [29] = target: Fuc(a1-2)[GalNAc(a1-3)]Gal(b1-4)Glc
# In short: as §1
# [30] = target: Fuc(a1-2)[GalNAc(a1-3)]Gal(b1-4)GlcNAc
# In short: as §1
binder,measurement,setting,value
Surfactant Protein D (Human); Neck + Carbohydrate Recognition Domain (NCRD) (Homo sapiens) (protein) MLLFLLSALVLLTQPLGYLEAEMKTYSHRTMPSACTLVMCSSVESGLPGRDRDGREGPRGEKGDPGLPGAAGQAGMPGQAGPVGPKGDNGSVGEPGPKGDTGPSGPPGPPGVPGPAGREGALGKQGNIGPQGKPGPKGEAGPKGEVGAPGMQGSAGARGLAGPKGERGVPGERGVPGNTGAAGSAGAMGPQGSPGARGPPGLKGDKGIPGDKGAKGESGLPDVASLRQQVEALQGQVQHLQAAFSQYKKVELFPNGQSVGEKIFKTAQFVKPFTEAQLLCTQAGGQLASPRSAAENAALQQLVVAKNEAAFLSMTDSKTEGKFTYPTGESLVYSNWAPGEPNDDGGSEDCVEIFTNGKWNDKACGEKRLVVCEF,glycan array binding signal (z-score),[1],-0.147
same,glycan array binding signal (z-score),[2],-0.153
same,glycan array binding signal (z-score),[3],-0.146
same,glycan array binding signal (z-score),[4],-0.154
same,glycan array binding signal (z-score),[5],-0.15
same,glycan array binding signal (z-score),[6],-0.151
same,glycan array binding signal (z-score),[7],-0.152
same,glycan array binding signal (z-score),[8],-0.154
same,glycan array binding signal (z-score),[9],-0.152
same,glycan array binding signal (z-score),[10],-0.153
same,glycan array binding signal (z-score),[11],-0.151
same,glycan array binding signal (z-score),[12],-0.156
same,glycan array binding signal (z-score),[13],-0.143
same,glycan array binding signal (z-score),[14],-0.156
same,glycan array binding signal (z-score),[15],-0.151
same,glycan array binding signal (z-score),[16],-0.154
same,glycan array binding signal (z-score),[17],-0.133
same,glycan array binding signal (z-score),[18],-0.156
same,glycan array binding signal (z-score),[19],-0.155
same,glycan array binding signal (z-score),[20],-0.155
same,glycan array binding signal (z-score),[21],-0.138
same,glycan array binding signal (z-score),[22],-0.152
same,glycan array binding signal (z-score),[23],-0.157
same,glycan array binding signal (z-score),[24],-0.149
same,glycan array binding signal (z-score),[25],-0.147
same,glycan array binding signal (z-score),[26],-0.152
same,glycan array binding signal (z-score),[27],-0.143
same,glycan array binding signal (z-score),[28],-0.151
same,glycan array binding signal (z-score),[29],-0.146
same,glycan array binding signal (z-score),[30],-0.153
